This is an account of results in the RNAGym collection of RNA variant scans (doi:10.7554/elife.90254).

The source gives no read counts; variants with many changes may rest on few reads.

B1: LINE1-mini (parent)
chain: GGCAGAGCUCAACACAGCGUGGCAAAGUGGCUGUGGCUAGACUGCC

Variants of B1 are the subject of the data set. Kind of data set: self-cleavage, relative activity (ratio to wild type); higher = more cleavage; in vitro, sequencing; the parent is a self-cleaving ribozyme.
On to G21A U28A C31U G44U, for which the self-cleavage turned out to be 0.16.
Regarding U20G G22A G40A C42G, the self-cleavage was 0.08.
Then G21U A41G C42U, with 0.13.
Turning to U20G G21U G36C G40A, the self-cleavage turned out to be 0.36.
On to G21U C23G U28A G35C, for which the self-cleavage was 0.02.
With G21C A26U G44U the figure was 0.06.
With G21A U32C A39G the figure was 0.08; with U20G G33A A39G G40A, 0.08; with U20G C42G C46A, 0.02.
For G21U C23A A25U G33U, the self-cleavage was 0.1.
In the case of G21U C23A A24C, the self-cleavage was 1.33.
Turning to U20G G29C G44C, the self-cleavage came to 0.02.
Turning to G21A G36C C42U, the self-cleavage amounted to 0.08.
Take G21C G22A G35C A39G C46G: the self-cleavage is 0.07.
As for G21C G22U A41U, the self-cleavage turned out to be 0.5.
U20G C23A A26U: the self-cleavage was 0.27.
Then U20G A26C C45A, with 0.53.
Then G21A A25C G30A, with 1.64.
With G21U A24G G36A G44A the figure was 0.1; with G21C G33U C37U, 0.2; with G21U A25C U38A, 0.22.
Consider U20G C37A A41C C42A, for which the self-cleavage came to 0.
Turning to U20G G21U G30C G33U, the self-cleavage worked out at 0.04.
As for G21A C23G G36A U38G C46G, the self-cleavage was 0.01.
With G21C A24U C31G, the self-cleavage turned out to be 0.09.
Then U20G G21A U34A, with 0.14.
Then G21U G22A G36C, with 0.05; and G21C G30U G35A G40U A41U C46A, with 0.02; and G21U C23A G30A, with 1.86.
Then U20G G21U A39C, with 0.15; and U20G G27U C37G A41G, with 0.01; and G21A G22A G36A A41U G44U, with 0.03.
Consider G21A A25G G33A U34C, for which the self-cleavage was 0.02.
Consider G21U G22A A26G, for which the self-cleavage was found to be 0.67.
With G21C A25G C46A, the self-cleavage was determined as 0.61.
With U20G G29U G33C A39G the figure was 0.02; with G21C A26C A39U C46U, 0.21; with G21U C23A A26C C31G C37U C46A, 0.01.
For the variant G21C A26U C37U, the self-cleavage amounted to 0.04.
Turning to G21A C23G A24G, the self-cleavage is 1.
With G21U A24G C45U, the self-cleavage was 0.17.
With G21U C37U C42A the figure was 0.01; with G21A C23A G44A, 0.27; with G21U C37A A39U, 0.02.
Take U20G C23G G30U: the self-cleavage is 0.53.
Then G21A G33U G36A, with 0.06; and G21U C31A A41G, with 0.08; and G21A G27C C31U, with 0.05.
With G21U C23U G30C U32A U43G the figure was 0.14.
With G21A G29U C31U the figure was 0.13; with G21U C23U C31U, 0.57; with U20G G21C G27C, 0.1.
As for U20G A25C A26U G36A, the self-cleavage was 0.08.
With U20G G27U G36U G40C the figure was 0.05.
With U20G G29A C42U the figure was 0.13.
For the variant G21C U28G G30C C42U C45G C46G, the self-cleavage is 0.01.
With G21U C31U C42U the figure was 0.06.
Then U20G C31G G35C, with 0.03; and G21A U28C G33C C42U, with 0.1.
With U20G C31G U32G the figure was 0.03; with G21A A25G G36U C42G, 0.
G21C G33U G40A: the self-cleavage amounted to 0.07.
With G21U G22C C23A C46A the figure was 0.64.
Then U20G G30A U38C, with 0.03.
Then G21U C31A C45G, with 0.01.
For G21C C31U C46G, the self-cleavage is 0.08.
With G21A C23A A25U G27C U32A C46A the figure was 0.35; with G21U C23G G29U, 0.12.
As for U20G U28A C37A C45U, the self-cleavage came out at 0.01.
Then G21U A24U U34C C46A, with 0.2.
G21U C23A G33U G40C A41U: the self-cleavage was 0.06.
With G21U C42G G44U the figure was 0.02; with U20G G22C G44U, 0.01.
With G21U C37A C45G C46G the figure was 0.05.
Then G21C G36C C45G, with 0.14; and U20G A25G U43G, with 0.
As for G21C A24U G29C A39C, the self-cleavage amounted to 0.02.
Regarding U20C U32G G33U, the self-cleavage worked out at 0.01.
With U20G G35U C42A G44C the figure was 0.06; with G21C G27C G33U G40C C46U, 0.04; with G21C G36U G44A, 0.08.
Then G21A G22U G29A, with 1.17; and U20G G29U U38G, with 0.01.
With G21A C37G C46A the figure was 0.03; with G21A G44U C46G, 0.13.
Regarding G21C A24C U34A G35A G36U, the self-cleavage is 0.13.
On to U20G G21A A25C, for which the self-cleavage came out at 0.33.
With U20G A39G C46U the figure was 0.03.
As to U20G C23G G33C G40A, the self-cleavage worked out at 0.04.
Then G21U C23G G44A, with 0.23; and U20G G33A G36U C37U A39C, with 0.03; and U20G U28G G35U, with 0.02.
For G21A A25U G33C U43A G44U, the self-cleavage turned out to be 0.04.
Then G21U G22C C46G, with 1.21; and G21A G35A G40U, with 0.05.
Take G21A U32G C37G U38A: the self-cleavage stood at 0.04.
As for G21U C23A G40U, the self-cleavage turned out to be 0.05.
Then U20G G35C G40U, with 0.1.
For the variant G21A G33C A41C, the self-cleavage came out at 0.03.
Consider G21A U28G A39G, for which the self-cleavage worked out at 0.35.
For G21A A24U U38A, the self-cleavage is 0.52.
Then U20G G22U C23G G40A C42G, with 0.14; and G21C G22U G30U U38C U43C, with 0.06; and U20G G21C U34C, with 0.2.
For U20G G27U C31A G33U, the self-cleavage was 0.05.
With U20G C23A G40U C46G the figure was 0.46; with G21C C23G C42A, 0.12.
Then U20G C23G G30U U32G G40U, with 0.02.
Turning to G21A G22U C23U C31U C45G, the self-cleavage is 0.05.
Then G21C U38C G40U C45U, with 0.08; and G21A G22C G30A G35A, with 0.12.
As to U20G C23A G30C, the self-cleavage is 0.04.
Take G21U C31U U38C G44A: the self-cleavage was determined as 0.03.
Then U20G C23A A26G G33C, with 0.05; and U20G G29U G35U G36C A41C G44U, with 0.4; and G21C G35U C37U, with 0.06.
Then G21A G30A A41C, with 0.15.
G21A G35C A41U: the self-cleavage was 0.07.
With U20G G22A U38A A39U the figure was 0.38; with G21A A26G C42G, 0.04; with G21U A25C U28G G30U G36U, 0.04.
Then G21A U28A G29U G35U, with 0.32; and U20G U34C G36U C46A, with 0.02; and G21C G33U G35C G44A, with 0.15.
Then U20G A24C G40U, with 0.06; and U20G G29A C46A, with 0.04; and G21U C31U G40A U43A, with 0.01.
As for U20G G21U C42A, the self-cleavage amounted to 0.82.
G21C G30C G40C: the self-cleavage was 0.1.
Regarding U20G C31A G35A C45G C46U, the self-cleavage is 0.03.
In the case of G21U C23A G29C, the self-cleavage stood at 0.4.
As to U20G A26U U43A, the self-cleavage amounted to 0.01.
With U20G G30C C31U, the self-cleavage was 0.41.
For G21A C23A G35A, the self-cleavage was determined as 0.4.
Then U20G G33C C42U, with 0.02; and U20G G22C A26U G44C, with 0.06; and U20C U28C U43A, with 0.03.
With U20C U28G C37A the figure was 0.01; with G21A G30C C42G U43A C46U, 0.04; with G21C G30C A41C, 0.08.
With G21U A26C G33C the figure was 0.04; with U20G C31U U43A, 0.02; with U20G G21U A41C, 0.05.
As to U20C U28C C37U, the self-cleavage came out at 0.02.
On to G21C U32A G35U, for which the self-cleavage was 0.07.
As for G21C G30A G33C, the self-cleavage worked out at 0.03.
Then G21C U28G C45G, with 0.1; and G21A G22U G30A U32G C37A G44A C46U, with 0.01; and G21A G29A G35U, with 0.18.
For the variant G21U A25C G36U, the self-cleavage amounted to 0.03.
With U20C U32C C45G the figure was 0.03; with G21C C23U C45G, 0.58.
With U20G G21U G33C the figure was 0.04; with U20G G21U G33U, 0.06.
With G21A G35U G36U the figure was 0.23; with G21A G35U G36C, 0.18.
Turning to G21C G33A U43A, the self-cleavage was 0.07.
Regarding G21A G22C G30A C37G, the self-cleavage is 0.03.
For U20G G21U G27U U38C C42U, the self-cleavage came to 0.48.
With G21A A26G G30A the figure was 1.04.
For the variant G21U A39C G44U, the self-cleavage was 0.
With U20G G33U A39C the figure was 0.02; with U20C U28G C37U U38C, 0.04.
Turning to G21C C37A C46U, the self-cleavage was 0.05.
With G21A A26C C46A the figure was 1.27; with U20G G21A A39C, 0.05; with G21C U34C C42A, 0.06.
